According to the supplement of paper PMC4967469:

Assays:
Assay in all cases: Viability of human cancer cell lines after 72 h of drug (GDSC screen)
GW843682X = compound: COc1cc2ncn(-c3cc(OCc4ccccc4C(F)(F)F)c(C(N)=O)s3)c2cc1OC [GW843682X]; details: top dose 0.256 µM
Procedure: (§1)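 Human cancer cell lines in 384-well plates, medium with 10% serum, drug for 72 h over a 256-fold dose range (nine 2-fold or five 4-fold steps up to the top dose). Adherent lines were fixed and stained with the nucleic acid dye Syto60, suspension lines read with resazurin; signal relative to control wells, capped at 0 and 100%. One two-parameter sigmoid per drug and line, fitted in a mixed model over all curves with the slope shared within a line.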

piperlongumine = compound: COc1cc(/C=C/C(=O)N2CCC=CC2=O)cc(OC)c1OC [piperlongumine]; details: top dose 10 µM
Procedure: as §1

GW 441756 = compound: Cn1cc(/C=C2\C(=O)Nc3cccnc32)c2ccccc21 [GW 441756]; details: top dose 2 µM; top dose inferred
Procedure: as §1

ABT-263 = compound: CC1(C)CCC(c2ccc(Cl)cc2)=C(CN2CCN(c3ccc(C(=O)NS(=O)(=O)c4ccc(N[C@H](CCN5CCOCC5)CSc5ccccc5)c(S(=O)(=O)C(F)(F)F)c4)cc3)CC2)C1 [ABT-263]; details: top dose 2 µM; top dose inferred
Procedure: as §1

Salubrinal = compound: O=C(/C=C/c1ccccc1)NC(NC(=S)Nc1cccc2cccnc12)C(Cl)(Cl)Cl [Salubrinal]; details: top dose 16 µM; top dose inferred
Procedure: as §1

PIK-93 = compound: CC(=O)Nc1nc(C)c(-c2ccc(Cl)c(S(=O)(=O)NCCO)c2)s1 [PIK-93]; details: top dose 20 µM
Procedure: as §1

Row | Cell Line | AUC (GW843682X) | IC50 (GW843682X) | AUC (piperlongumine) | IC50 (piperlongumine) | AUC (GW 441756) | IC50 (GW 441756) | AUC (ABT-263) | IC50 (ABT-263) | AUC (Salubrinal) | IC50 (Salubrinal) | AUC (PIK-93) | IC50 (PIK-93)
1 | NB6 (neuroblastoma, adherent) | 0.751 | 102 nM | 0.982 | > 10 µM | 0.967 | > 2000 nM | 0.911 | > 2000 nM | 0.984 | > 16 µM | 0.904 | > 20 µM
2 | P31-FUJ (acute myeloid leukaemia, suspension) | 0.996 | > 256 nM | 0.834 | 4.46 µM | 0.996 | > 2000 nM | 0.978 | > 2000 nM | 0.995 | > 16 µM | 0.956 | > 20 µM
3 | SU-DHL-4 (B-cell lymphoma, suspension) | 0.611 | 29.6 nM | 0.873 | 5.28 µM | 0.997 | > 2000 nM | 0.941 | 1790 nM | 0.906 | 10.6 µM | 0.467 | 1.04 µM
4 | DSH1 (bladder, adherent) | 0.981 | > 256 nM | 0.981 | > 10 µM | 0.959 | > 2000 nM | 0.976 | > 2000 nM | 0.953 | > 16 µM | 0.883 | 19.8 µM
5 | ONS-76 (medulloblastoma, adherent) | 0.7 | 61.4 nM | 0.716 | 2.7 µM | 0.89 | > 2000 nM | 0.976 | > 2000 nM | 0.875 | > 16 µM | 0.885 | > 20 µM
6 | MSTO-211H (mesothelioma, adherent) | 0.933 | > 256 nM | 0.812 | 4.73 µM | 0.99 | > 2000 nM | 0.991 | > 2000 nM | 0.99 | > 16 µM | 0.98 | > 20 µM
7 | NCI-H211 (small cell lung carcinoma, adherent) | 0.462 | 12.6 nM | 0.823 | 5.67 µM | 0.979 | > 2000 nM | 0.645 | 310 nM | 0.907 | > 16 µM | 0.603 | 2.37 µM
8 | TE-15 (oesophagus, suspension) | 0.392 | 7.74 nM | 0.844 | 8.58 µM | 0.985 | > 2000 nM | 0.941 | > 2000 nM | 0.96 | > 16 µM | 0.751 | 7.33 µM
9 | HAL-01 (lymphoblastic leukaemia, suspension) | 0.673 | 45.5 nM | 0.688 | 1.96 µM | 0.97 | > 2000 nM | 0.358 | 53.4 nM | 0.855 | 10.5 µM | 0.194 | 0.179 µM
10 | NCI-H1648 (lung adenocarcinoma, adherent) | 0.405 | 8.64 nM | 0.979 | > 10 µM | 0.959 | > 2000 nM | 0.852 | 1700 nM | 0.931 | > 16 µM | 0.696 | 4.63 µM
11 | LAMA-84 (chronic myeloid leukaemia, suspension) | 0.654 | 43.2 nM | 0.941 | > 10 µM | 0.94 | > 2000 nM | 0.491 | 118 nM | 0.857 | 13.4 µM | 0.779 | 8.32 µM
12 | EoL-1-cell (haematopoietic neoplasm, suspension) | 0.603 | 29.6 nM | 0.764 | 3.23 µM | 0.927 | > 2000 nM | 0.337 | 46.9 nM | 0.817 | 7.66 µM | 0.774 | 6.91 µM
13 | VA-ES-BJ (soft tissue, adherent) | 0.609 | 32.5 nM | 0.742 | 3.23 µM | 0.945 | > 2000 nM | 0.933 | > 2000 nM | 0.951 | > 16 µM | 0.885 | > 20 µM
14 | OCI-LY-19 (B-cell lymphoma, suspension) | 0.475 | 13.8 nM | 0.839 | 6.08 µM | 0.501 | 126 nM | 0.385 | 61.9 nM | 0.915 | > 16 µM | 0.212 | 0.195 µM
15 | GI-1 (glioma, adherent) | 0.342 | 5.95 nM | 0.616 | 1.29 µM | 0.941 | > 2000 nM | 0.884 | > 2000 nM | 0.92 | > 16 µM | 0.76 | 6.78 µM
16 | Ramos-2G6-4C10 (Burkitt lymphoma, suspension) | 0.501 | 16.1 nM | 0.8 | 4.05 µM | 0.988 | > 2000 nM | 0.603 | 229 nM | 0.868 | 11.2 µM | 0.545 | 1.62 µM
17 | MONO-MAC-6 (acute myeloid leukaemia, suspension) | 0.573 | 25.6 nM | 0.68 | 2.06 µM | 0.862 | 1890 nM | 0.846 | 1590 nM | 0.841 | 12.1 µM | 0.375 | 0.555 µM
18 | L-1236 (Hodgkin lymphoma, suspension) | 0.942 | > 256 nM | 0.828 | 4.9 µM | 0.951 | > 2000 nM | 0.494 | 121 nM | 0.92 | > 16 µM | 0.751 | 5.68 µM
19 | EC-GI-10 (oesophagus, adherent) | 0.89 | > 256 nM | 0.781 | 4.1 µM | 0.987 | > 2000 nM | 0.986 | > 2000 nM | 0.979 | > 16 µM | 0.852 | 15.3 µM

A lower IC50 marks a more sensitive line; a limit (>, <) means that the fit lies beyond the doses tested. For AUC the same curve is integrated over the 256-fold range of doses and scaled to a fraction; values near 1 show little effect. For part of these data: The top dose, if marked as inferred, is not printed in the source and was worked back from the curve model.
